About 550 (1.1%) of roughly 48,000 compounds were called active. Roughly 4% stayed inconclusive and do not appear here. Cut-off read from the data, not from the text of the source: active = potency below about 15 µM; inconclusive = mostly about 16 µM to 33 µM; inactive = weaker than that. The list shows a part of the results.

The record followed here is PubChem BioAssay AID360 (National Center for Advancing Translational Sciences (NCATS), 2006).
Potency is the fitted concentration of half-maximal effect.

UniProt P04062, sequence (P04062 whole entry, looked up): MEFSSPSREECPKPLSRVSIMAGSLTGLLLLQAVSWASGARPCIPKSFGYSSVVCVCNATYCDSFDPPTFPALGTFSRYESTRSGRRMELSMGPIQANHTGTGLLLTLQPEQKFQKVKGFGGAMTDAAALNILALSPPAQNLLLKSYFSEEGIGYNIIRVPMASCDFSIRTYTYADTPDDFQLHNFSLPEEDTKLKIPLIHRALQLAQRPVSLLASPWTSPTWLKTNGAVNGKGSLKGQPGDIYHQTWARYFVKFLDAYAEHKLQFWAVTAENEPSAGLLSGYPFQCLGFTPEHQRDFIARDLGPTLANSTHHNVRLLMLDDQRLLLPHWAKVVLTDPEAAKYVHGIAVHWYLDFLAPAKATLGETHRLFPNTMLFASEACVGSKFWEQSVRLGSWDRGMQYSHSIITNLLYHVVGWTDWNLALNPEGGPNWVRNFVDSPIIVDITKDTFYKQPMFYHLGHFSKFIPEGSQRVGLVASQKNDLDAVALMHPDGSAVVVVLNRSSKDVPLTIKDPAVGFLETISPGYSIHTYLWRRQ

This assay deals with Lysosomal acid glucosylceramidase (Homo sapiens) (UniProt P04062). In words: Glucocerebrosidase.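 Note: the screen sought inhibitors.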 Conditions: purified enzyme, resorufin glucoside fluorescence (screen aimed at inhibitors), 20 min; series mostly up to 77 µM. The essentials:
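Wild-type enzyme at 0.2 nM final in 50mM citric acid/KH2PO4, 10mM sodium taurocholate, 0.01% tween-20, pH 5.9, with resorufin beta-D-glucopyranoside at 30 uM final. Compounds titrated, 20 min at RT, red fluorescence read; AC50 from titration.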
`Cc1ccc(-c2nc(CS(=O)CC(=O)NCCN(CC(C)C)CC(C)C)c(C)o2)cc1` (configuration not stated): the Potency was inactive: > 76.9 µM.
Under `CCOC(=O)Cn1c(=O)c2c(nc(Br)n2Cc2ccc(Cl)cc2)n(C)c1=O` stands inactive: > 76.9 µM.
`O=C(O)C1CCCCC1C(=O)NCCc1ccccc1` (configuration not stated): the Potency is inactive: > 76.9 µM.
Under `O=C(O)CSCc1ccc(Cl)cc1` stands inactive: > 76.9 µM.
For the molecule `Cc1cc(CC(C)C)n(-c2nc3ccccc3c(=O)n2OCC(=O)N(C)C)n1`, the Potency is inactive: > 76.9 µM.
For the molecule `Cc1cc(C)nc(N2CCCC(C(=O)Nc3nnc(C)s3)C2)n1` (configuration not stated), the Potency entry is “inactive”.
Turning to `COc1ccccc1C1/C(=C(/O)c2ccc(C)cc2)C(=O)C(=O)N1CC(C)O` (configuration not stated), the Potency was inactive: > 76.9 µM.
Consider `O=C(Nc1ccccc1)C1CCN(c2nccs2)CC1`, for which the Potency was inactive: > 76.9 µM.
As for `O=C(Oc1ccc(Cl)c2cccnc12)N1CCCCC1`, the Potency is inactive: > 76.9 µM.
As for `Cc1cc(C)nc(NC(=O)CSc2nn(C)c(=S)s2)n1`, the Potency was inactive: > 76.9 µM.
Under `CCOC(=O)C1=C(C)NC(C)=C(C(=O)OCC)C1C(=O)OCC(=O)N1CCc2ccccc21` stands inactive: > 76.9 µM; under `CCOc1ccccc1Nc1nc(N)nc(CN(C)C2CCCCC2)n1`, “inactive”.
Under `COC(=O)c1ccc(COC(=O)c2ccc(N(C)C)cc2)cc1` stands inactive: > 76.9 µM; under `Oc1ccccc1-c1cc(C(F)(F)F)[nH]n1`, inactive: > 76.9 µM.
`Cc1ccc(C)c2[nH]c(=O)c(CN(CC3CCCO3)C(=O)NC3CCCCC3)cc12` (configuration not stated): the Potency is inactive: > 76.9 µM.
Turning to `CCCS(=O)(=O)N1CCC(C(=O)NCCCN(C)Cc2ccccc2)CC1`, the Potency was inactive: > 76.9 µM.
As for `CC1Cc2ccccc2N1Cc1nc2scc(-c3cccs3)c2c(=O)[nH]1` (configuration not stated), the Potency is inactive: > 76.9 µM.
With `CCC(=O)N(c1ccc(F)cc1)C1C=CS(=O)(=O)C1` (configuration not stated) the figure was inactive: > 76.9 µM.
On to `COC(=O)c1cc(COc2ccc3ccc(=O)oc3c2)c(C)o1`, for which the Potency is inactive: > 76.9 µM.
For the molecule `CCOC(=O)NC(Nc1ccc(S(N)(=O)=O)cc1)(C(=O)OCC)C(F)(F)F` (configuration not stated), the Potency is inactive: > 76.9 µM.
As to `CCOc1ccc(OCC)c(NC(=O)C2CCCN(c3nc(C)cc(C)n3)C2)c1` (configuration not stated), the Potency is inactive: > 76.9 µM.
As for `Cc1ccc(-c2nnc(CSc3nncn3N)o2)cc1`, the Potency was inactive: > 76.9 µM.
In the case of `COC(=O)C1C2C=CC3(CN(C4CCCC4)C(=O)C13)O2` (configuration not stated), the Potency was inactive: > 76.9 µM.
Consider `COc1ccc(NC(=O)Nc2ccc(N(C)C)cc2)cc1`, for which the Potency is inactive: > 76.9 µM.
`O=S(=O)(N1CCCCCC1)N1CCN(S(=O)(=O)N2CCOCC2)CC1`: the Potency was inactive: > 76.9 µM.
With `Cc1nc(=O)c(-c2ccccc2)c(C)n1-c1cccc(C(=O)O)c1` the figure was inactive: > 76.9 µM; with `CC(=O)Nc1ccc(Cl)cc1C(=O)O`, inactive: > 76.9 µM.
For the molecule `CCCC(=O)N(c1ccc2oc(=O)sc2c1)S(=O)(=O)c1ccccc1`, the Potency is inactive: > 76.9 µM.
On to `O=C(c1ccco1)N1CCN(CC2CC3C=CC2C3)CC1` (configuration not stated), for which the Potency is inactive: > 76.9 µM.
As for `COc1ccc(OC)c(C(=O)c2nc3c(n2O)CCCCC3)c1`, the Potency is inactive: > 76.9 µM.
Under `CCOc1ccc(N2CC(C(=O)Nc3ccccc3F)CC2=O)cc1` (configuration not stated) stands inactive: > 76.9 µM.
On to `CC1(C)CC(=O)C=C(NCCCN2CCCC2=O)C1`, for which the Potency was inactive: > 76.9 µM.
Regarding `CC(=O)Nc1cccc(-c2nnc(-c3ccccc3)o2)c1`, the Potency is active: 13.9 µM.
For the molecule `O=C(CSc1nnc2ccccn12)N1CCOCC1`, the Potency is inactive: > 76.9 µM.
With `CCOc1cc(-c2nc(-c3ccc(C)nc3OC)no2)cc(OCC)c1OCC`, the Potency is inactive: > 76.9 µM.
With `Cc1ccc(Nc2nc(N)nc(CC#N)n2)cc1` the figure was inactive: > 76.9 µM.
For the molecule `CCOC(=O)C1C2C=CC3(CN(CCc4ccccc4)C(=O)C13)O2` (configuration not stated), the Potency was inactive: > 76.9 µM.
On to `O=c1cc(N2CCC3(CC2)OCCO3)[nH]c(=O)n1-c1ccc(Br)cc1`, for which the Potency is inactive: > 76.9 µM.
Take `O=C(CCN1C(=O)c2ccccc2C1=O)Nc1ccccn1`: the Potency is inactive: > 76.9 µM.
With `CCOC(=O)c1sc(NC(=O)CSc2ncn[nH]2)c(C#N)c1C` the figure was inactive: > 76.9 µM; with `Cc1ccc(-n2c(SCC(N)=O)nnc2-c2cccnc2)c(C)c1`, inactive: > 76.9 µM; with `COc1ccc(C(=O)Nc2ccc(N3CCN(c4ccc(OC)cc4)CC3)c(C#N)c2)cc1`, inactive: > 76.9 µM.
`O=C1C(=O)N(CCO)C(c2cccc(F)c2)/C1=C(\O)c1ccc(Cl)cc1` (configuration not stated): the Potency was inactive: > 76.9 µM.
`COc1cccc(NC(=O)CNC(=O)c2cccs2)c1`: the Potency was inactive: > 76.9 µM.
Under `CCc1ccccc1NC(=O)CN1CCC(NC(=O)COC)CC1` stands inactive: > 76.9 µM.
Under `Cc1cc(=O)oc2cc(OCc3ccc(S(=O)(=O)N4CCOCC4)cc3)ccc12` stands inactive: > 76.9 µM; under `COCCOC(=O)C1=C(N)OC2=C(C(=O)CC(C)(C)C2)C1c1cccnc1` (configuration not stated), inactive: > 76.9 µM.
For `O=C1N(Cc2ccc3c(c2)OCO3)c2ccccc2C1(O)c1c[nH]c2ccccc12` (configuration not stated), the Potency was inactive: > 76.9 µM.
On to `CCOc1ccc(CNC23CN4CN(CN(C4)C2)C3)cc1`, for which the Potency is inactive: > 76.9 µM.
Turning to `CCNC(=O)N1C(=O)C2(OCCO2)c2ccccc21`, the Potency was inactive: > 76.9 µM.
Regarding `O=C(Cn1ccc2ccccc2c1=O)NCCC(=O)NC1CCN(Cc2ccccc2)CC1`, the Potency was inactive: > 76.9 µM.
With `Cn1ccnc1SCC(=O)c1cc2ccccc2o1`, the Potency was inactive: > 76.9 µM.
As for `O=C(COc1nnc2ccccn12)N1CCN(S(=O)(=O)c2ccccc2)CC1`, the Potency was inactive: > 76.9 µM.
Turning to `CCOC(=O)Cc1c(C)nc2c(C#N)c(C)nn2c1C`, the Potency is inactive: > 76.9 µM.
Turning to `CC(NC(=O)CC(O)(C(F)(F)F)C(F)(F)F)c1ccccc1` (configuration not stated), the Potency was inactive: > 76.9 µM.
Under `O=C(O)CSc1nc2ccc(Cl)cc2[nH]1` stands inactive: > 76.9 µM.
In the case of `Cc1ccccc1NC(=O)NCc1ccco1`, the Potency was inactive: > 76.9 µM.
For the molecule `Cc1ccc(/C(O)=C2\C(=O)C(=O)N(c3cc(C)on3)C2c2cccc(Cl)c2)cc1` (configuration not stated), the Potency was inactive: > 76.9 µM.
As for `Cc1ccc(N(CC(=O)NCc2ccncc2)S(C)(=O)=O)cc1Cl`, the Potency is inactive: > 76.9 µM.
Consider `CCCS(=O)(=O)N1CCC(C(=O)N2CCN(C(=O)OCC)CC2)CC1`, for which the Potency was inactive: > 76.9 µM.
As to `COc1cc(NC(=O)C2CC(c3cccc(OC)c3OC)=NO2)cc(OC)c1OC` (configuration not stated), the Potency is inactive: > 76.9 µM.
In the case of `S=P(c1ccc(N2CCOCC2)cc1N1CCOCC1)(N1CCOCC1)N1CCOCC1`, the Potency is inactive: > 76.9 µM.
Under `Cc1cc(-c2nnc(SCc3ccccn3)o2)no1` stands inactive: > 76.9 µM; under `COCCNC(=O)CN(C(=O)CCC(=O)Nc1ccccn1)c1ccc(F)c(Cl)c1`, inactive: > 76.9 µM; under `O=C(NCc1ccc2c(c1)OCO2)c1ccc(-c2ccc(Cl)cc2)o1`, inactive: > 76.9 µM.
Under `CCOC(=O)CC1=CC(=O)Nc2ccccc2N1` stands inactive: > 76.9 µM.
With `C=CCSc1nc2c(cc1C#N)CCC2` the figure was inactive: > 76.9 µM; with `Cc1ccc(C(C)NC(=O)C2CCCO2)cc1C` (configuration not stated), inactive: > 76.9 µM.
On to `CCOCCCNC(=O)C(c1ccc(Cl)cc1)N1CCC2(CC1)OCCO2` (configuration not stated), for which the Potency was inactive: > 76.9 µM.
On to `CCOC(=O)c1cc2sc(C)cc2n1CC(=O)N1CCc2ccccc21`, for which the Potency is inactive: > 76.9 µM.
Regarding `COc1ccc(NC(=O)CS(=O)CC(=O)NCc2cccc(C(F)(F)F)c2)cc1` (configuration not stated), the Potency was inactive: > 76.9 µM.
Regarding `COCCCNC(=O)C1CC(=O)N(c2ccc(C)cc2)C1` (configuration not stated), the Potency is inactive: > 76.9 µM.
In the case of `Cc1c(NC(=O)c2cnn3cccnc23)c(=O)n(-c2ccccc2)n1C`, the Potency is inactive: > 76.9 µM.
With `CCOCCc1nnc(NC(=O)CSc2ccccc2)s1` the figure was inactive: > 76.9 µM; with `O=C(OCCN1C(=O)c2ccccc2C1=O)C1CCN(S(=O)(=O)c2cccs2)CC1`, inactive: > 76.9 µM.
Regarding `Nn1c(SC/C=C/c2ccccc2)nnc1-c1cccnc1`, the Potency was inactive: > 76.9 µM.
Turning to `C=CCNS(=O)(=O)c1cccc2cc(C(=O)O)c(O)cc12`, the Potency is inactive: > 76.9 µM.
As for `COc1ccc(Cl)cc1C(=O)Nc1ccccc1N1CCN(C)CC1`, the Potency entry was “inactive”.
On to `COc1cc(OC)c(C(=O)NC2CC(C)(C)NC(C)(C)C2)cc1OC`, for which the Potency is inactive: > 76.9 µM.
For the molecule `Cc1ccc(C)c2[nH]c(=O)c(CN(CC3CCCO3)S(=O)(=O)c3ccc4c(c3)OCCO4)cc12` (configuration not stated), the Potency was inactive: > 76.9 µM.
With `CC(C)C(C(=O)NC1CCCCC1)N(CC1CCCO1)C(=O)CNS(=O)(=O)c1ccc(F)cc1` (configuration not stated), the Potency was inactive: > 76.9 µM.
Under `C#CCSc1nnc(-c2ccccc2)c(=O)[nH]1` stands inactive: > 76.9 µM; under `COc1ccc(Cl)cc1NC(=O)CN(C1CCCCC1)S(C)(=O)=O`, inactive: > 76.9 µM.
Turning to `Cc1nnc(SCC(=O)c2cc(C)n(-c3c(C)n(C)n(-c4ccccc4)c3=O)c2C)s1`, the Potency is inactive: > 76.9 µM.
For the molecule `COCCSc1ccccc1C(=O)Nc1nnc(COC)s1`, the Potency is inactive: > 76.9 µM.
Consider `COc1ccc(NC(=O)C2CCC(=O)N2S(=O)(=O)c2ccc(C)cc2)c(OC)c1` (configuration not stated), for which the Potency is inactive: > 76.9 µM.
With `O=S(=O)(Nc1ccc(F)cc1)N1CCCCCC1` the figure was inactive: > 76.9 µM; with `Cc1ccc2c(c1)N(CC(=O)O)C(=O)CO2`, inactive: > 76.9 µM; with `CCC(=O)Nc1c2c(nc3c1CCC3)CCCC2`, inactive: > 76.9 µM.
For the molecule `CC1CCCCN1Cc1nc2c(c(=O)n(C)c(=O)n2C)n1CCc1ccccc1` (configuration not stated), the Potency is inactive: > 76.9 µM.
Turning to `CC(=O)Cn1c(N2CCC(Cc3ccccc3)CC2)nc2c1c(=O)[nH]c(=O)n2C`, the Potency was inactive: > 76.9 µM.
With `Cc1csc(NC(=O)C2CCC(C)(C(=O)O)C2(C)C)n1` (configuration not stated), the Potency is inactive: > 76.9 µM.
